# Assay results taken from PubChem BioAssay AID624170 (National Center for Advancing Translational Sciences (NCATS), 2012).
# About 850 (0.21%) of roughly 410,000 compounds were called active. The inconclusive results got no clear call from the source; some entries with a clear call stand among them for comparison. Calls follow the shape of the dose curve; as a rule, active = well fitted inhibition curve with a large enough effect; inconclusive = small, poorly fitted or top-dose-only effect, or another doubt; inactive = no such curve, though single readings can be large or run the other way. No potency is given beside an inconclusive call; the fits are too rough.
# Biological target: Glutaminase kidney isoform, mitochondrial (Homo sapiens) (UniProt O94925)
# Test: qHTS for Inhibitors of Glutaminase (GLS)
# Conditions: GLS enzymatic activity, qHTS titration; series mostly up to 45.5 µM
# Method in brief: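 hKGA in 45 mM KH2PO4 (pH 8.2), 0.02% Tween-20 with compound, then 1mM L-Glutamine (stock as added) plus glutamate oxidase/HRP/Amplex red coupling mix. Fluorescence read initially and after 30 min at RT; signal change reflects glutamate formation.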
# Potency is read from the fitted curve at half-maximal effect; tags tell the direction and shape of the fitted curve.
# Chain of UniProt O94925 (O94925 whole entry, looked up, canonical isoform): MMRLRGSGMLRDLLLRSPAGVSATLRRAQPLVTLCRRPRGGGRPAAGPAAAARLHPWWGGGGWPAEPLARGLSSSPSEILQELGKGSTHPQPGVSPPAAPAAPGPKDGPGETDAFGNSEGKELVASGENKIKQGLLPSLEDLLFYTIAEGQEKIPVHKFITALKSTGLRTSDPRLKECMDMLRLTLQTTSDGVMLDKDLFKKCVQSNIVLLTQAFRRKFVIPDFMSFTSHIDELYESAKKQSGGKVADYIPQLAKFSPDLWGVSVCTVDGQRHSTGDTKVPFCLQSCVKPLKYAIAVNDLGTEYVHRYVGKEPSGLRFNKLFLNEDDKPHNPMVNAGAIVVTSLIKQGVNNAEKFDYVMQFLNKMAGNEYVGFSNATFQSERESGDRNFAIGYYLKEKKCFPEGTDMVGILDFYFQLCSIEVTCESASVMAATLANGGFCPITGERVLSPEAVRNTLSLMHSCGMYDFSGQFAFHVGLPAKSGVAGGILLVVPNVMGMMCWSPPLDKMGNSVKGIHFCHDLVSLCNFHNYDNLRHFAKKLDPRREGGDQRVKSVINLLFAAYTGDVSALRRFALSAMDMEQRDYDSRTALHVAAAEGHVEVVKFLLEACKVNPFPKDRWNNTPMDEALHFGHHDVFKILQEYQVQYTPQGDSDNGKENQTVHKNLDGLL
row,SMILES,Potency
1,C#CCOCCOCCOCCNc1nc(N2CCN(C(=O)CCCCCCCCCCNC(=O)Cn3cc(CCCCCN)nn3)CC2)nc(N2CCN(C(=O)CCCCCCCCCCNC(=O)[C@@H]([C@H](C)O)n3cc(C)nn3)CC2)n1,"inconclusive [inhibitor, partial curve, poor fit]"
2,CC(C)C12CN3CC(C(C)C)(CN(C1)C3c1ccc3c(c1)OCO3)C2=O (stereo not given),inactive
3,O=C(C1=C(O)C(=O)N(c2nc3ccc(Cl)cc3s2)C1c1ccco1)c1ccco1 (stereo not given),active: 17.8 µM
4,Cc1ccccc1-n1nc2c(c1NC(=O)c1cc3ccccc3oc1=O)CS(=O)(=O)C2,"inconclusive [inhibitor, single point]"
5,COc1ccc(Oc2nc3c(c(=O)n(Cc4ccccc4Cl)c(=O)n3C)n2C)cc1,"inconclusive [inhibitor, full curve, poor fit]"
6,CC(=O)Oc1cc(O)c2c(=O)c(OC(C)=O)c(-c3ccc(OC(C)=O)c(OC(C)=O)c3)oc2c1,inactive
7,CCc1nnc(NC(=O)CSCc2cc(=O)n3nc(C)sc3n2)s1,"inconclusive [inhibitor, single point]"
8,COc1ccc(NC(=O)c2ccc3c(c2)NC(=O)CS3)cc1,inactive
9,Cc1ccc(NC(=O)CN2C(=O)S/C(=C\c3ccc(C(=O)O)cc3)C2=O)cc1,"inconclusive [inhibitor, single point]"
10,Cc1ccc(N2CN=c3s/c(=C\c4cccnc4)c(=O)n3C2)cc1,"inconclusive [inhibitor, single point]"
11,Cn1cccc1/C=C1\SC(=S)N(NC(=O)c2ccccc2)C1=O,inactive
12,O=C(CCN1CCN(c2ccccc2)CC1)NNC(=O)c1ccccc1,inactive
13,CCn1c(=N)c(S(=O)(=O)c2ccccc2)cc2c(=O)n3ccccc3nc21,inactive
14,CN(C)c1nc(N)nc(CSc2nnnn2-c2ccc(Cl)cc2)n1,"inconclusive [inhibitor, single point]"
15,O=c1c(Cl)c(O)c2cccc3c4ccccc4n1c23,"inconclusive [inhibitor, single point]"
16,NC(=O)c1ccc(NC(=O)Cc2cccs2)cc1,inactive
17,CCOC(=O)c1c(/N=C/c2ccc(C)cc2O)sc2c1CCN(C)C2,active: 10 µM
18,CC(NC(=O)COC(=O)c1cc(NS(=O)(=O)c2ccc(Cl)c([N+](=O)[O-])c2)ccc1O)C1CC2CCC1C2 (stereo not given),inactive
19,S=c1[nH]nc(-c2ccncc2)n1/N=C/c1cn(-c2ccccc2)nc1-c1ccc(Cl)cc1,inactive
20,CCOC(=O)c1cc2c(=O)n3ccccc3nc2n(CCOC)c1=NC(=O)c1ccncc1,inactive
